Data taken from paper PMC6919601, “Identification of Plasmodium dipeptidyl aminopeptidase allosteric inhibitors by high throughput screening” (PLoS ONE, 2019).
Among all 110,000 compounds or so, about 230 (0.21%) showed an effect of 50% or more. Some of the results follow.

Molecular target: DPAP1 (Plasmodium falciparum, UniProt Q8IIJ9)
Assay: primary screen, percent inhibition; read by cleavage of a fluorogenic dipeptide substrate; higher = more effect of the substance
Parameters: species or system P. falciparum D10 trophozoite lysates; single well
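Note: 30 min substrate incubation versus DMSO and 10 µM JCP410 controls.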

Sequence of DPAP1 (Q8IIJ9 whole entry, looked up): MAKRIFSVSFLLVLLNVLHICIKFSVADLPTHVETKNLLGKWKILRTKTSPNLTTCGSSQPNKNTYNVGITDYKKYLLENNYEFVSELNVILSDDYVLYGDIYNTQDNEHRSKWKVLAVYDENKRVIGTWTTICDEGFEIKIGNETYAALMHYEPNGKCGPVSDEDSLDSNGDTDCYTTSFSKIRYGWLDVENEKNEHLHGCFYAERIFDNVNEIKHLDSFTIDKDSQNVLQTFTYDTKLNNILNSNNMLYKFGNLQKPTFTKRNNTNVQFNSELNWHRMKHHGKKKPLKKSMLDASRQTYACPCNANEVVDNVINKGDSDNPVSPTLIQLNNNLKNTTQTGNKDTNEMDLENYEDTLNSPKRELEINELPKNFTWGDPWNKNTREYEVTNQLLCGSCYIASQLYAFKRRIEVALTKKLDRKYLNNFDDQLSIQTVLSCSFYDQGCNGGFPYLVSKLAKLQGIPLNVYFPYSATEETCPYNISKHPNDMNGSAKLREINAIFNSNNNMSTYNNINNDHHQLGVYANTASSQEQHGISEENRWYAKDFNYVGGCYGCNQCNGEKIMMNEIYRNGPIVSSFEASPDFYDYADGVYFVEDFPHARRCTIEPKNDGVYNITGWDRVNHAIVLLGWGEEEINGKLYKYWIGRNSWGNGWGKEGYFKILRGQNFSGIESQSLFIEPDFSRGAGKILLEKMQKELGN

Row | Compound | % Inhibition @ 10 uM
1 | CNC(=O)CCS(=O)(=O)Cc1ccc(C)cc1 | 2.18%
2 | CC(=O)Nc1ccc(/C=C/c2ccccc2)cc1 | 1.21%
3 | CN(CC(=O)Nc1ccc(Oc2ccccc2)cc1)S(=O)(=O)c1ccc(F)cc1 | 0.83%
4 | CC1=CC=CN2CC(O)CN=C12 (centres unmarked) | 4.67%
5 | CC(=O)c1ccc(NC(=O)c2ccc([N+](=O)[O-])cc2)cc1 | -4.18%
6 | CNC(=O)CCc1nc(-c2ccccc2Cl)no1 | 2.02%
7 | Cc1ccc(-c2nc3ccccc3c(C(=O)O)c2C)cc1 | 4.57%
8 | COc1ccc(CCNC(=O)CSc2nc3c(c(=O)n2C)SCC3)cc1OC | 0.8%
9 | Cc1ccc2oc(=O)n(CCOc3ccccc3)c2c1 | 0.983%
10 | C#CCOc1ccc(/C=C2\SC(=O)N(CC(=O)O)C2=O)cc1OC | -2.98%
11 | COc1ccc(/C=C/C2=NC(=C\c3ccc(Cl)cc3)/C(=O)O2)cc1 | 6.4%
12 | Cc1ccc(-c2nnc(N3CCCCC3)c3ccccc23)cc1S(=O)(=O)N1CCN(C)CC1 | -6.44%
13 | CCCn1cc2c(c1-c1ccccc1Cl)c(=O)n(C)c(=O)n2C | -1.35%
14 | CC(C)Cc1ccc(-c2cc(C(=O)NCCCN3CCOCC3)c3ccccc3n2)cc1 | 2.32%
15 | CCC(CC)C(=O)N1CCc2cc(OC)c(OC)cc2C1COc1ccc(OC)cc1 (centres unmarked) | 6.04%
16 | CCOc1ccc(C(=O)C(=O)c2ccc(OCC)cc2)cc1 | 3.04%
17 | Cc1ccc(CNC(=O)CCCn2nc(C)n3ccnc3c2=O)cc1 | -7.02%
18 | COc1ccc(NC(=O)c2c(-c3ccccc3)noc2C)cc1 | 0.709%
19 | Cc1[nH]nc2c1C(c1ccc(-c3ccccc3Cl)o1)C(C#N)=C(N)O2 (centres unmarked) | 21.8%
20 | CCOC(=O)N1CCC(NC(=O)c2c(C)oc3ncnc(N4CCOCC4)c23)CC1 | 0.231%
21 | N#Cc1ccc(NC(=O)c2nn3c(C(F)(F)F)cc(-c4ccccc4)nc3c2Cl)cc1 | -1.66%
22 | O=C1CCS(=O)(=O)c2ccccc21 | -4.96%
23 | COc1ccc(OC)c(C2NC(=O)NC(C)=C2C(=O)Nc2cccc(C)c2C)c1 (centres unmarked) | 0.0504%
24 | O=C(Nc1ccc(NC(=O)C2CC23CCC3)cc1)C1CC12CCC2 (centres unmarked) | 2.5%
25 | O=C(O)C(Cc1c[nH]c2ccccc12)NS(=O)(=O)c1ccc(Cl)cc1 (centres unmarked) | 0.983%
26 | Cc1c(Cl)cccc1-n1c(C)cc(/C=C2/C(=N)N3C=CSC3=NC2=O)c1C | -4.84%

Row | Compound | % Inhibition @ 10 uM
27 | Cc1ccc(/N=C/c2c(C)nn(-c3ccccc3)c2O)cc1CN1C(=O)c2ccccc2C1=O | 0.687%
28 | Cc1nn(CC(=O)NCCc2ccc(S(N)(=O)=O)cc2)c(=O)c2cc3sccc3n12 | -1.58%
29 | O=c1ccccn1CCOc1ccc(Cl)cc1 | 1.72%
30 | COc1ccc(OCC(=O)Nc2ccc3c(c2)OCO3)cc1 | -1.57%
31 | Cn1cccc1Cc1nnc(SCC(=O)N2CCOCC2)n1-c1cccc(C(F)(F)F)c1 | 2.12%
32 | CC(C)(C)c1cc(O)c(O)c(Br)c1 | -8.15%
33 | Cc1cccc(C(=O)Nc2ccc(S(=O)(=O)N3CCCCC3C)cc2)c1 (centres unmarked) | 0.231%
34 | Cc1cc(Cl)c2c(ccc3ccccc32)n1 | -4.03%
35 | Cn1nc(-c2ccc(C(=O)NC3CCCCC3)cc2)c2ccccc2c1=O | -3.46%
36 | O=C(O)c1ccc(N2C(=O)c3cccc([N+](=O)[O-])c3C2=O)cc1O | -4.94%
37 | COc1cc(-c2noc(-c3ccncc3)n2)cc(OC)c1OC | 2.21%
38 | O=c1oc2ccccc2c2c1nnn2CCO | 0.685%
39 | O=C1N=C(N2CCCCC2)SC1=C1CCCCC1 | -4.67%
40 | Cc1ccc(-c2nc3c4cnn(C)c4ncn3n2)cc1 | -2.85%
41 | c1cc2c(cc1Nc1nc(-c3ccc(C4CCCCC4)cc3)cs1)OCO2 | -3.14%
42 | COC(=O)NC12CC3CC(CC(C3)C1=O)C2 | -1.85%
43 | O=C1CC(C(=O)NCc2ccccc2)NC(N2CCCCC2)=N1 (centres unmarked) | 2.5%
44 | COc1ccccc1N1CCN(Cc2cc(Br)c(O)c(OC)c2)CC1 | 4.67%
45 | Cc1ccc2c(c1)C(=O)c1cc3ccccc3nc1CS2 | 6.69%
46 | O=C(Nc1cc(Cl)cc(Cl)c1)c1ccccc1Cl | -1.62%
47 | CC(C)(C)NC(=O)CN(c1cccc2ccccc12)S(C)(=O)=O | -12.5%
48 | CC(C)Cn1cc(NC(=O)N(CCN(C)C)Cc2ccco2)c2ccccc2c1=O | 1.92%
49 | COc1cccc(/C=C2/SC(Nc3ccccc3)=NC2=O)c1O | 3%
50 | Cc1ccc2c(c1)c1c3n2CCN(C(=O)CN2CCN(C(=O)c4ccco4)CC2)C3CCC1 (centres unmarked) | 2.38%
51 | CCN(Cc1ccccc1)C(=O)CN(C)S(=O)(=O)c1ccc2[nH]c3c(c2c1)CCCC3 | 1.97%
52 | CCCN1CCN(S(=O)(=O)c2ccc3nc(O)ccc3c2)CC1 | -7.67%

Row | Compound | % Inhibition @ 10 uM
53 | CC1CCCCN1C(=O)c1cc(-c2ccccc2O)on1 (centres unmarked) | 1.82%
54 | COc1cc(/C=N/n2c(C)nnc2-n2nc(C)cc2C)c(Cl)cc1O | 0.561%
55 | COc1ccc(C(=O)Nc2ccc(N3CCCC3)c(Cl)c2)cc1 | -7.99%
56 | O=C(Nc1nnc(CCN2CCCCC2)s1)c1ccc(Br)cc1 | -4.04%
57 | COC(=O)C1=CN(Cc2ccc(OC)cc2)C=C(C(=O)OC)C1c1cccc(OCc2ccccc2)c1 | 3.45%
58 | CC(=O)N[C@H]1[C@H](Oc2ccc3ccccc3c2)O[C@@H]2COC(C)(C)O[C@H]2[C@@H]1O | -1.08%
59 | Cc1cc(C)c(C(=O)/C=C/c2cccc3ccccc23)c(O)n1 | -2.03%
60 | CCN(CC)CCNC(=O)CCc1nc(-c2ccc(C)cc2)no1 | 5.1%
61 | CC(C)=C1C2C=CC1C1C(=O)N(c3ccc(C#N)cc3)C(=O)C21 (centres unmarked) | 2.38%
62 | COc1ccc(-c2c(C)nn3c(N)c(-c4ccccc4)cnc23)cc1OC | -8.72%
63 | O=C(NCc1ccccc1)c1ccc(C(=O)N(C2CCCCC2)C2CCCCC2)cc1 | 5.64%
64 | COCCN1C(=O)c2oc3ccccc3c(=O)c2C1c1ccc(O)cc1 (centres unmarked) | -1.11%
65 | O=C1NC2(CCCC2)C(=O)N1CCS(=O)(=O)Oc1ccc(Cl)cc1 | -9.83%
66 | Cc1cccc(NC(=O)c2c(NC(=O)c3cccnc3)sc3c2CCCC3)c1 | -4.05%
67 | Cc1ccc(CS(=O)(=O)c2cn(CC(=O)NCc3ccco3)c3ccccc23)cc1 | -4.33%
68 | CCCN1CCN(C(=O)C2c3ccccc3C(=O)N(C)C2c2cccs2)CC1 (centres unmarked) | -1.48%
69 | O[C@]12CCCC[C@@H]1[C@@H](c1ccc(Cl)cc1)NCC2 | 1.66%
70 | Cc1ccc(Cl)c(OCCCCN2CCC(C)CC2)c1 | 2.25%
71 | CCSc1nnc(NC(=O)c2c(C)nn(-c3ccc(C)cc3)c2-n2cccc2)s1 | -6.3%
72 | COc1cc(-c2nc(C(F)(F)F)c(OC)o2)cc(OC)c1OC | 2.01%
73 | O=C(CCn1c(=O)c2cccn2c2cccnc21)NCCc1cccs1 | 7.62%
74 | O=c1c2ccccc2n2c(-c3cc(Cl)ccc3O)nnc2n1Cc1ccccc1 | 1.68%
75 | N#Cc1cc2c(nc1SCC(=O)Nc1cnc3ccccc3c1)CCCCCC2 | 5.17%
76 | COc1ccc(C=C2C(=O)OC(C)(C(C)(C)C)OC2=O)cc1Br (centres unmarked) | 1.37%
77 | CC(NC(=O)c1ccc(C23CC4CC(CC(C4)C2)C3)cc1)C(=O)O (centres unmarked) | 11.1%
78 | CCN1C(=O)N/C(=C/c2cc(C)n(-c3ccccn3)c2C)C1=O | 0.413%

Row | Compound | % Inhibition @ 10 uM
79 | CCOC(=O)c1c(C)c(C(=O)NCc2ccc(F)cc2)c(C)n1CC | -3.44%
80 | COc1cc(C(=O)NCCc2csc(-c3cccnc3)n2)cc(OC)c1OC | 0.953%
81 | Cc1[nH]c2ccccc2c1C(=O)CN1CCCC1 | 0.968%
82 | O=C(CN1CCN(CCN2C(=O)c3cccc4cccc(c34)C2=O)CC1)c1ccccc1 | 5.19%
83 | O=C1c2ccccc2C(=O)N1CCC1=NCCc2ccccc21 | -3.16%
84 | CC(C)Cn1cc(NC(=O)NCCc2ccc(Cl)cc2)c2ccccc2c1=O | 1.06%
85 | CC1CCCC(NC(=O)C2CCCCC2C(=O)O)C1C (centres unmarked) | 6.71%
86 | COc1ccc2[nH]c3c(=O)n(CC(=O)N4CCCC4)c(=S)[nH]c3c2c1 | -0.495%
87 | COCCCNC(=O)C1c2ccccc2C(=O)N2CCc3cc(OC)c(OC)cc3C12 (centres unmarked) | 2.93%
88 | Cc1ccccc1-c1nnc2s/c(=C\c3cccs3)c(=O)n12 | -3.33%
89 | CC1CN(Cc2ccccc2)c2ccccc2N=C1S (centres unmarked) | 3.8%
90 | O=C(CSc1cccc2cccnc12)Nc1nnc(-c2ccccc2)s1 | 1.37%
91 | O=C(NC1CCCCC1)N1CCC(N2CCCCC2)CC1 | 4.3%
92 | CCOc1ccccc1C1C(C#N)=C(N)OC2=C1C(=O)CCC2 (centres unmarked) | -2.46%
93 | Nc1c(Cl)cnn(-c2ccccc2)c1=O | 0.827%
94 | CC(C)Cn1c(=O)c2ccccc2n2c(CCC(=O)N3CCC(Cc4ccccc4)CC3)nnc12 | 13.9%
95 | O=C1c2ccccc2C(=O)c2cc(OCC(O)CN3CCCCC3)ccc21 (centres unmarked) | 3.43%
96 | COc1ccc2nc(NC(=O)C3CCCN(S(=O)(=O)c4c(C)noc4C)C3)sc2c1 (centres unmarked) | 0.708%
97 | O=C(CNC(=O)c1ccccc1C(=O)O)c1ccccc1 | -1.82%
98 | COc1cc(/C=C2/NC(=O)N(c3cccc(Cl)c3)C2=O)c(Br)cc1O | -3.65%
99 | C=CCNC(=O)CN1C(=O)c2ccccc2S1(=O)=O | 1%
100 | COc1ccc(C)cc1N(CC(=O)Nc1cc(C)ccc1C)S(C)(=O)=O | -6.77%
101 | CCOc1ccc(NS(=O)(=O)c2ccc(N)cc2)cc1 | 0.851%
